These results are taken from paper PMC4176354.

Chains of the proteins cited; added tags and fusions are not shown.
UniProt P38859: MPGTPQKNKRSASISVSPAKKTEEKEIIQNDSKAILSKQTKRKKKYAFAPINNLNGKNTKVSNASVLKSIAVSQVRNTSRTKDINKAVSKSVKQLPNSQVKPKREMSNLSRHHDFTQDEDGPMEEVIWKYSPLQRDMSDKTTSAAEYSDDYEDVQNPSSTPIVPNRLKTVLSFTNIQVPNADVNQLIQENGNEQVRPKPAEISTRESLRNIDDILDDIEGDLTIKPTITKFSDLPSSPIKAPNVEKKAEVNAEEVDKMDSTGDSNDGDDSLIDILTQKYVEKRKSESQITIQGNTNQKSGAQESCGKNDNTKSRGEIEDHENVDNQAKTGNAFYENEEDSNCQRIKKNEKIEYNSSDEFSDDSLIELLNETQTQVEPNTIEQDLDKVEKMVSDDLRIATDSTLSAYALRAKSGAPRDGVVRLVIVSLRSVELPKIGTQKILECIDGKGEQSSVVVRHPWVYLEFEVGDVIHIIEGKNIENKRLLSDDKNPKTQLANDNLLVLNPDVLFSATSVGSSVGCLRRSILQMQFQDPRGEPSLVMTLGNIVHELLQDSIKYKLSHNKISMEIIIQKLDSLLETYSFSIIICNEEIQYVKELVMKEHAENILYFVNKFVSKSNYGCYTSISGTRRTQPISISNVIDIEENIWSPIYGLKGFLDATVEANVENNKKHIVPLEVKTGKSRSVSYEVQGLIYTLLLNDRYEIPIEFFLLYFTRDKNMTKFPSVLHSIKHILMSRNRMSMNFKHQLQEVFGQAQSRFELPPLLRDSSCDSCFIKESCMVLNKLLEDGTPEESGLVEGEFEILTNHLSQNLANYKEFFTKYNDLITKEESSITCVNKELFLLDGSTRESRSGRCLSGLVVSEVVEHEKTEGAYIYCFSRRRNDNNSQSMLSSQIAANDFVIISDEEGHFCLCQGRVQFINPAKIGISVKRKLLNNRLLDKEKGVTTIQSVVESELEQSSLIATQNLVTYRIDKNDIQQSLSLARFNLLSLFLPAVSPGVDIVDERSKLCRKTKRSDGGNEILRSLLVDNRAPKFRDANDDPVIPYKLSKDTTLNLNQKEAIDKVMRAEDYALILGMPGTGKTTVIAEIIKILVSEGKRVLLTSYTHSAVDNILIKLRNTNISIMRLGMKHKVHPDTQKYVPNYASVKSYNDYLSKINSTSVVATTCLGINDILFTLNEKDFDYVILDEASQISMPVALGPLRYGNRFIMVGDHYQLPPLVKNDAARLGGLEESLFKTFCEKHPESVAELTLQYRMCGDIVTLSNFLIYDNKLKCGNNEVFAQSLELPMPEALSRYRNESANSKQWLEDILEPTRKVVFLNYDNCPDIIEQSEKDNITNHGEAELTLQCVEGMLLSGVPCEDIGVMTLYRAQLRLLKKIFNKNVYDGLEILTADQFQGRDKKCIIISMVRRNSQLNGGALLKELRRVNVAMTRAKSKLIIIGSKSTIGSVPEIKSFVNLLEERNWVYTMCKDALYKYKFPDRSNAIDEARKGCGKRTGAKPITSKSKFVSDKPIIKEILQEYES

These are yes or no findings as the source states them, for the method shown. In cells and extracts the contact can be indirect. Some entries that bind do so weakly or less than the wild type. Where a sequence is shown, tags or fusion partners need not be part of it.

Holding throughout (experiment): co-IP; yeast cell lysates in IP buffer (pH 7.5, 20 mM HEPES, 140 mM NaCl, 1 mM EDTA, 1% Triton X 100, 0.1% sodium deoxycholate); anti-HA or anti-Myc antibody, protein G Dynabeads, 4°C overnight; four washes; western blot with anti-HA or anti-Myc
One assay concerns the target Dna2-HA (S. cerevisiae) (UniProt P38859).
Another assay has as its target T1, Exo1-HA (S. cerevisiae) (UniProt P39875).
T1 sequence: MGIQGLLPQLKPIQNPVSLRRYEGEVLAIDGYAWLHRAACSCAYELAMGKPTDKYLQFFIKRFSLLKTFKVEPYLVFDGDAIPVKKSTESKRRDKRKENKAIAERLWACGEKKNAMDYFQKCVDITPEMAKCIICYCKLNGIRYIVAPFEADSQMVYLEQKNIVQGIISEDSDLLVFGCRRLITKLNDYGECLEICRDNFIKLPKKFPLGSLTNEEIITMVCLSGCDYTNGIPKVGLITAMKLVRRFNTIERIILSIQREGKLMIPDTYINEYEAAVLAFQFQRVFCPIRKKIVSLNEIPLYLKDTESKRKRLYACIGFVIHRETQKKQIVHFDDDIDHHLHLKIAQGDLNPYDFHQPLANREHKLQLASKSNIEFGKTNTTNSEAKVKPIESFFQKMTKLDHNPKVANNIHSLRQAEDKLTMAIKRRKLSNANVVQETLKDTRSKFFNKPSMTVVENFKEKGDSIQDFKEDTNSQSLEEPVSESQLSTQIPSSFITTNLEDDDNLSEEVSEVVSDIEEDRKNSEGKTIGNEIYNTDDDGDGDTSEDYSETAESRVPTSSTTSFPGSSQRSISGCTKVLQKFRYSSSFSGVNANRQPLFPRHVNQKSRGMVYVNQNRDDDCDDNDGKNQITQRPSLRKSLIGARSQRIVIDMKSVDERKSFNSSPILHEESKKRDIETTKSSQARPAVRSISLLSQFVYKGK

Another assay has as its target T2, Mec3-HA (S. cerevisiae) (UniProt Q02574).
T2 sequence: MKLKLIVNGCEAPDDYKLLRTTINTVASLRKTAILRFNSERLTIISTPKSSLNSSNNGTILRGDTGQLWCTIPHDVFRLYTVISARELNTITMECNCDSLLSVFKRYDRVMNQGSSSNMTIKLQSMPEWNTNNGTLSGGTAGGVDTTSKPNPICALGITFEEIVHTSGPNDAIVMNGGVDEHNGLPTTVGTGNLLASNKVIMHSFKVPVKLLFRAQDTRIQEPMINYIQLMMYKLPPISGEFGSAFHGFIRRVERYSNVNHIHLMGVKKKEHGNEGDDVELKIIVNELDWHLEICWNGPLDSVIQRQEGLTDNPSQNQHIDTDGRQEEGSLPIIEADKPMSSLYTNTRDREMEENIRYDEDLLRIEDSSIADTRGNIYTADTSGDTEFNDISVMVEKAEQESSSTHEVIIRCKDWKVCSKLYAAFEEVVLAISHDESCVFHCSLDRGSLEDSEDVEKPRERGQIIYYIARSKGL

The next assay deals with T3, Sgs1-HA (S. cerevisiae) (UniProt P35187).
T3 sequence: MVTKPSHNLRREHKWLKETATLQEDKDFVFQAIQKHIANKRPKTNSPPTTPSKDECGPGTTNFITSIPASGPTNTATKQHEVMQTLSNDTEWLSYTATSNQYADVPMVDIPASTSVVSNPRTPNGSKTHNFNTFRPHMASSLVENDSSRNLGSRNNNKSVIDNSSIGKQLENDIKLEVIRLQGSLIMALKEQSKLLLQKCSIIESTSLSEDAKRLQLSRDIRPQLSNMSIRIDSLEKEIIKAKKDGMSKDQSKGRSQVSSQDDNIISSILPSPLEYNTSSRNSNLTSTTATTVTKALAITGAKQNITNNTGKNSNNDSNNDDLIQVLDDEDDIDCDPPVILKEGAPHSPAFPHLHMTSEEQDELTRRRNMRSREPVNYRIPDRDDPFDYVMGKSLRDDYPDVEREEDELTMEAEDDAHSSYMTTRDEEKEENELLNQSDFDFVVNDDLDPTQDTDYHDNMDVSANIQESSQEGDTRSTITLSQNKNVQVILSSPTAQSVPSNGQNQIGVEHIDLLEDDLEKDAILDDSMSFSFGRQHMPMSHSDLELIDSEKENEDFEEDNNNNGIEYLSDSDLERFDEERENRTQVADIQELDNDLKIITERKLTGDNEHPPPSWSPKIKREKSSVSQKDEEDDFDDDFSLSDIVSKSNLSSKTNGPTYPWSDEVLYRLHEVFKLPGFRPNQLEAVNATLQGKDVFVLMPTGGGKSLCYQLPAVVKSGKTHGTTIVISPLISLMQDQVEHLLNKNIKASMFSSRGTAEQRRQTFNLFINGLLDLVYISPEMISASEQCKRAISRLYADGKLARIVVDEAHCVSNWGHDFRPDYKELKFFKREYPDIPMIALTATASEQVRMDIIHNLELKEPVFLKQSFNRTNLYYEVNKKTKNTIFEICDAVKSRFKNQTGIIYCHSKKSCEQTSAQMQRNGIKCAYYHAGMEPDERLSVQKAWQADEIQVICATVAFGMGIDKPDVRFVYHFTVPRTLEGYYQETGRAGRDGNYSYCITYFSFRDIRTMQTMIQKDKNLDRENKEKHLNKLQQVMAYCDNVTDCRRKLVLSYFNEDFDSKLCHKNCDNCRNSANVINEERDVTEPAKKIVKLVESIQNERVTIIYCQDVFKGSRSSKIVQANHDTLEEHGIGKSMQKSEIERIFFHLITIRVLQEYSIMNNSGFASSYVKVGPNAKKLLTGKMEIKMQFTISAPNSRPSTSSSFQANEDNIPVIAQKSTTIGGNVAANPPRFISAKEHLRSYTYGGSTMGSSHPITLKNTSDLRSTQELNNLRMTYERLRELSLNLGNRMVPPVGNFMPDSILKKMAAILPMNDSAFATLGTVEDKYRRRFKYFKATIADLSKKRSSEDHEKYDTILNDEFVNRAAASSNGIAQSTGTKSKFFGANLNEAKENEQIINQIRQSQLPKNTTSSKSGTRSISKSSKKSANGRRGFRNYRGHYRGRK

B1: Ddc1-Myc (protein, UniProt Q08949 1-612)
chain: MSFKATITESGKQNIWFRAIYVLSTIQDDIKITVTTNELIAWSMNETDTTLCQVRFQKSFFEEYEFKPHEIVFGENGVQVIEDTYGNSHKLYSFRVNGRHLTTISRKPDGDGIKSFTIAVNNTSTCPESLANRLIVVIEMDSLIVKEYCPQFQPIKYDPIIINLKYKRRFLDVFGTAASDRNPQEPLDPKLLDVFTNTERELTSALFNEEVESDIRKRNQLTAADEINYICCNSTLLKNFLDNCNVNVTDEVKLEINVHRLSITAFTKAVYGKNNDLLRNALSMSNTISTLDLEHYCLFTTIEDEKQDKRSHSKRREHMKSIIFKLKDFKNFITIGPSWKTTQDGNDNISLWFCHPGDPILMQMQKPGVKLELVEVTDSNINDDILEGKFIKTAISGSKEEAGLKDNKESCESPLKSKTALKRENLPHSVAGTRNSPLKVSYLTPDNGSTVAKTYRNNTARKLFVEEQSQSTNYEQDKRFRQASSVHMNMNREQSFDIGTTHEVACPRNESNSLKRSIADICNETEDPTQQSTFAKRADTTVTWGKALPAADDEVSCSNIDRKGMLKKEKLKHMQGLLNSQNDTSNHKKQDNKEMEDGLGLTQVEKPRGIFD
With B1, the binding entry is on record as “no binding” with Dna2-HA (S. cerevisiae), “no binding” in the assay with Exo1-HA (S. cerevisiae), “binds” with Mec3-HA (S. cerevisiae) and “no binding” in the assay with Sgs1-HA (S. cerevisiae).
